# Data from PubChem BioAssay AID485294 (National Center for Advancing Translational Sciences (NCATS), 2010).
# In all, about 370,000 compounds went through this assay and about 150 (0.041%) were called active. The shares of active, inactive and inconclusive entries below differ from those in the screen. Calls come from the whole dose curve; as a rule, active = well fitted inhibition curve with a large enough effect; inconclusive = small, poorly fitted or top-dose-only effect; inactive = flat fitted curve, though single readings scatter. No potency is given beside an inconclusive call; the fits are too rough.
# Biological target: Beta-lactamase (Escherichia coli (strain K12)) (UniProt P00811)
# Chain of UniProt P00811 (P00811 whole entry, looked up): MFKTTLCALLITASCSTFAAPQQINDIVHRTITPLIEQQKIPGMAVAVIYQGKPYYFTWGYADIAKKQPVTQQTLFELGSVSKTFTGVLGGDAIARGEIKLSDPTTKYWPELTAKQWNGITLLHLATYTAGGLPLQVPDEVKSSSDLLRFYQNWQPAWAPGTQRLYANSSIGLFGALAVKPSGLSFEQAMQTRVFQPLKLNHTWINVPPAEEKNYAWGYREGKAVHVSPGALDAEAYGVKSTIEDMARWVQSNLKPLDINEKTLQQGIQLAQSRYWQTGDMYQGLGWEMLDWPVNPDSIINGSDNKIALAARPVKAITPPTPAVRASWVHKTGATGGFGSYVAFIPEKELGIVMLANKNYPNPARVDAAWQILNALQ
# Assay: qHTS Inhibitors of AmpC Beta-Lactamase (assay with detergent); note: nearly all actives have a fitted effect of over 25% in size
# Conditions: AmpC hydrolysis of nitrocefin, absorbance 480 nm, 0.01% Triton; series mostly up to 114 µM
# Outline: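 AmpC (5.3 nM in the dispensed reagent) in 20 mM phosphate pH 7.0 with 0.01% (detergent screen) or 0.0001% Triton X-100 was preincubated with compounds for 15 min at room temperature. Nitrocefin was then added from an 800 uM solution, and hydrolysis was followed at 480 nm.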
# Potency is the fitted concentration of half-maximal effect; tags give direction and shape of the fitted curve.
row,Structure (SMILES),Potency
1,O=C(NC1CCCCC1)C(c1ccc2ncccc2c1)N(Cc1ccco1)C(=O)c1ccc2c(c1)OCCO2 (stereo not given),inactive
2,O=C(O)C1CCN(C(=O)CSc2nc3cc(Cl)ccc3c(=O)n2Cc2ccccc2)CC1,"inconclusive [inhibitor, full curve, poor fit]"
3,COc1ccc(CNC(=O)CN2C(=O)NC3(CCCc4sccc43)C2=O)cc1 (stereo not given),"inconclusive [inhibitor, partial curve, poor fit]"
4,CCOC(=O)[C@@H]1[C@H]2COc3cc(OC)ccc3[C@@H]2N2C(=O)N(c3cccc(C)c3)C(=O)[C@@]12C,"inconclusive [inhibitor, full curve, poor fit]"
5,CCc1ccc(NC(=O)N2CCN(C(=O)C3CCCO3)CC2)cc1 (stereo not given),inactive
6,Cc1ccc2ncnc(NCCC(=O)O)c2c1,"inconclusive [inhibitor, single point]"
7,CN(CC(=O)Nc1ccccc1C(F)(F)F)C(=O)Cc1ccccc1F,"inconclusive [inhibitor, full curve, poor fit]"
8,CCc1cc(C(=O)O)c(NC(=O)c2cc(OC)c(OC)c(OC)c2)s1,"inconclusive [inhibitor, single point]"
9,COc1ccc(OC(=O)c2cc3ccccc3o2)cc1,"inconclusive [inhibitor, full curve, poor fit]"
10,COc1ccc(C2=NOC(C(=O)NCc3cccs3)C2)cc1 (stereo not given),"inconclusive [inhibitor, full curve, poor fit]"
11,NC(=O)CSc1nc(-c2ccccc2)c(-c2ccccc2)o1,"inconclusive [inhibitor, full curve, poor fit]"
12,CSc1ccccc1C(=O)N1CCN(c2ccc(F)cc2)CC1,"inconclusive [inhibitor, full curve, poor fit]"
13,COc1ccc(-c2cn(Cc3cccc(OC)c3)nn2)cc1,"inconclusive [inhibitor, full curve, poor fit]"
14,COc1ccc(CNC(=O)C2CC(O)CN2C(=O)Nc2ccccc2)cc1 (stereo not given),"inconclusive [inhibitor, partial curve, poor fit]"
15,O=C(NCc1ccco1)Nc1cccs1,inactive
16,Cc1ccc(SSc2cc(C)ccc2N)c(N)c1,"inconclusive [inhibitor, partial curve]"
17,COc1ccccc1-c1cc(C(=O)N2CCN(c3ccc(F)cc3)CC2)no1,"inconclusive [inhibitor, full curve, poor fit]"
18,COc1cc(/C=C/C(=O)O)cc(OC)c1,"inconclusive [inhibitor, full curve, poor fit]"
19,CCOC(=O)C1(Cc2cccc(Cl)c2)CCCN(C(=O)c2ccnn2C)C1 (stereo not given),"inconclusive [inhibitor, partial curve]"
20,O=C1N2CCSC2=NC1(NS(=O)(=O)c1ccccc1)C(F)(F)F (stereo not given),inactive
21,Cc1ccc(S(=O)(=O)NCC(c2ccco2)N2CCc3ccccc32)cc1 (stereo not given),"inconclusive [inhibitor, full curve, poor fit]"
22,CN(C)C(CNC(=O)CSc1nnc(-c2ccco2)o1)c1ccccc1 (stereo not given),"inconclusive [inhibitor, full curve, poor fit]"
23,CCN(CC)c1nn2c(=O)c(C(=O)NCCc3ccccc3C)cnc2s1,inactive

row,Structure (SMILES),Potency
1,COCCCNCC(=O)c1c(N)n(Cc2ccccc2)c(=O)n(C)c1=O,"inconclusive [inhibitor, full curve, poor fit]"
2,O=C(COC(=O)c1ccc(Cl)nc1)Nc1ccc2c(c1)OCCO2,"inconclusive [inhibitor, single point]"
3,CC(C)(C)N1CC23CCC(C[C@@H]2C1=O)O3 (stereo not given in full),"inconclusive [inhibitor, single point]"
4,CCOC(=O)CC1(NC(=O)C2CCC(=O)N(CCc3ccc(OC)cc3)C2)CCCCC1 (stereo not given),inactive
5,CCCCOc1ccc(C(=O)NCCc2sc3nc(-c4ccc(OC)cc4)nn3c2C)cc1,inactive
6,Cn1c(-c2ccc3ccccc3n2)nc2cnccc21,"inconclusive [inhibitor, partial curve, poor fit]"
7,C/C(=N\N1CCCCC1)c1ccccc1O,inactive
8,CCOC(=O)c1ccccc1NC(=O)CN1C(=O)CC(c2ccccc2)Sc2ccccc21 (stereo not given),inactive
9,O=C1CN(C(=O)COc2c(Cl)cccc2Cl)c2ccccc2N1,"inconclusive [inhibitor, partial curve, poor fit]"
10,COc1ccc(-c2nc(CS(=O)(=O)CC(=O)NCc3ccc(F)cc3)c(C)o2)cc1,inactive
11,COc1cc2c(cc1NC(=O)c1ccncc1)oc1ccccc12,"inconclusive [inhibitor, full curve, poor fit]"
12,CCCOc1ccccc1C(=O)N(Cc1cccc(Br)c1)C1CCS(=O)(=O)C1 (stereo not given),inactive
13,CN(C=O)CP(=O)(O)CN1CCCCC1,"inconclusive [inhibitor, partial curve]"
14,COc1cccc(C2Nc3ccccc3C(=O)N2c2ccc(F)cc2)c1O (stereo not given),inactive
15,COc1ccc2cc(/C=C/C(=O)c3ccco3)c(Cl)nc2c1,inactive
16,Cc1ccc(C)c(NCCC#N)c1,"inconclusive [inhibitor, full curve, poor fit]"
17,O=C(CSc1nc(-c2ccco2)cc(C(F)(F)F)n1)NCCCn1ccnc1,"inconclusive [inhibitor, full curve, poor fit]"
18,COc1ccc(C)cc1N(C(=O)c1ccccc1)c1nc2ccccc2s1,"inconclusive [inhibitor, full curve, poor fit]"
19,Cn1nnnc1Sc1ncnc2scc(-c3ccccc3)c12,"inconclusive [inhibitor, full curve, poor fit]"
20,CCN(CC)CCCC(C)NC(=O)c1cccc(S(=O)(=O)N2CCc3ccccc32)c1 (stereo not given),inactive
21,Cc1nnsc1Sc1cccc(C(F)(F)F)c1,inactive
22,COc1ccc(NC(=O)CC2C(=O)N(c3cccc(OC)c3)C(=O)N2CCC2=CCCCC2)cc1 (stereo not given),inactive
